From patent US20250136696A1 (HARBOUR BIOMED SHANGHAI, published 2025)

What was measured:
[1] = target: T1, human B7-H7 on the cell surface (human, UniProt Q9UM44 23-414); test: flow cytometry, HEK-293/hu B7-H7 cells
T1 construct: whole, on cells; also called hB7-H7; hu B7-H7
T1 sequence (looked up): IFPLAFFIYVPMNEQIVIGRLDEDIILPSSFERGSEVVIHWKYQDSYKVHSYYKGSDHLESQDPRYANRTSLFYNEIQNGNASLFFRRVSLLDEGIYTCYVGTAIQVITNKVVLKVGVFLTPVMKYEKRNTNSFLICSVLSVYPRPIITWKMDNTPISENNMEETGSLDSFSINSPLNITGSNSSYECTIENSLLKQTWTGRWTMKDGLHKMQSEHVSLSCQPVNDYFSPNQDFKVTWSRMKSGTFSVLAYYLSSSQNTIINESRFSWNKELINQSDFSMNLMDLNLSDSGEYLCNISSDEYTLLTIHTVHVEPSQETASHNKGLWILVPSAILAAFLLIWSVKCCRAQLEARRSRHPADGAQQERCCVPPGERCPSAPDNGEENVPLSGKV
Procedure: (§1) This example was intended to study the in vitro activity of H2L2 monoclonal antibodies against human B7-H7 in binding to human/cynomolgus monkey B7-H7. Since homologous molecules of B7-H7 were not present in mice, the detection was not performed. […] The cells were adjusted to a cell density of 1×10⁶ cells/mL, respectively. The cells were seeded in a 96-well V-bottom plate (Corning, #3894) at 100 μL/well, and the antibody to be tested at 2× final concentration with 3-fold concentration gradient dilution was then added at 100 μL/well. The cells were incubated at 4° C. for 2 hours in the dark. After the incubation, the cells were rinsed twice by adding pre-chilled PBS containing 2% BSA at 100 μl/well, and centrifuged at 500 g at 4° C. for 5 minutes, and the supernatant was discarded. […] The cells were washed twice by adding pre-chilled PBS containing 2% BSA at 100 μL/well, and centrifuged at 500 g at 4° C. for 5 minutes, and the supernatant was discarded. Finally, the cells were resuspended in pre-chilled PBS containing 2% BSA at 200 μL/well, and the fluorescence signal values were read using an ACEA Novocyte3000 flow cytometer.

[2] = target: T1, human B7-H7 on the cell surface; test: flow cytometry, HCC827 cells
Procedure: as §1

[3] = target: T1, human B7-H7 on the cell surface; test: flow cytometry, LS180 cells
Procedure: as §1

[4] = target: T2, cynomolgus monkey B7-H7 on the cell surface (cynomolgus monkey); test: flow cytometry, HEK-293/cyno B7-H7 cells
T2 construct: whole, on cells; also called cyno B7-H7
Procedure: as §1

[5] = target: T3, biotinylated human B7-H7 protein (Acro Biosystems, B77-H82F5) (human, UniProt Q9UM44 23-344, biotinylated); test: flow cytometry, blocking of biotinylated human B7-H7 binding to HEK-293/CD28H cells
T3 construct: Bought soluble protein; also called biotin-B7H7 protein
T3 sequence (looked up): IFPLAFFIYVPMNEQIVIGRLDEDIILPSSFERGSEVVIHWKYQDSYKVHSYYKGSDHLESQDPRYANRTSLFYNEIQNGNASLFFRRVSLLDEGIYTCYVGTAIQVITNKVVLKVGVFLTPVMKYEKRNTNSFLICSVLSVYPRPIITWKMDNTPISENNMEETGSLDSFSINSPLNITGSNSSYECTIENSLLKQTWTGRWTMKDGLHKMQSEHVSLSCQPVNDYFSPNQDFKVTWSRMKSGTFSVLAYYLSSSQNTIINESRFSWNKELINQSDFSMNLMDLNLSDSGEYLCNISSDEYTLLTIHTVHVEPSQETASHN
Procedure: This example was intended to study the in vitro blocking activity of human anti-B7-H7 antibodies against the binding of human B7-H7 to its receptor CD28H. […] The cells were adjusted to a cell density of 1×10⁶ cells/mL. […] The cells were incubated at 4° C. for 1 hour in the dark. […] The cells were rinsed twice by adding pre-chilled PBS containing 2% BSA at 100 μL/well, and were centrifuged at 500 g at 4° C. for 5 minutes, and the supernatant was discarded. A fluorescent secondary antibody (PE Streptavidin, BD, Cat #: 554061, 1:200) was added at 100 μL/well, and the cells were incubated at 4° C. for 30 minutes in the dark. The cells were washed twice by adding pre-chilled PBS at 200 μL/well, and centrifuged at 500 g at 4° C. for 5 minutes, and the supernatant was discarded. Finally, the cells were resuspended in pre-chilled PBS at 200 μL/well, and the fluorescence signal values were read using an ACEA Novocyte3000 flow cytometer. IC50 was calculated.

[6] = target: T4, human B7-H7 recombinant protein (human, UniProt Q9UM44 23-344); test: BLI (Octet), antibody captured on AHC sensor, human B7-H7 in solution, 1:1 global fit
T4 construct: also called human B7-H7 protein
T4 sequence (looked up): T3 sequence (looked up)
Procedure: The binding kinetics between antigen and antibody was analyzed using an Octet Red 96e (Fortebio) molecular interaction analyzer by biolayer interferometry (BLI) technology.
For determining the affinity of antibodies for antigens, the rotary speed of the sensor was set at 1000 rpm. AHC sensors (Fortebio, #18-5060) placed in one column were first equilibrated in a test buffer for 10 minutes, and then used to capture the anti-B7-H7 antibodies at a capture height of 0.7 nm; and after being equilibrated in the buffer for 120 s, the AHC sensors bound to human B7-H7 (concentrations: 50-3.125 nM and 0 nM) with 2-fold gradient dilution for 180 s and dissociated for 300 s. The AHC sensors were finally regenerated by immersing in a 10 mM glycine-hydrochloric acid solution with pH 1.5 to elute the protein bound to the sensors.
For data analysis using Octet Data Analysis software (Fortebio, version 11.0), 0 nM well was used as the reference well, reference subtraction was performed, “1:1 Global fitting” method was selected for data fitting, the kinetic parameters of the binding of the antigen to the antigen-binding protein were calculated, and the kₒₙ (1/Ms) value, kdis (1/s) value and KD (M) value were obtained.

[7] = target: T3, biotinylated human B7-H7 protein (Acro …); test: flow cytometry, blocking of biotinylated human B7-H7 binding to CHO-K1/KIR3DL3 cells
Text: This example was intended to study the in vitro blocking activity of human anti-B7-H7 antibodies against the binding of human B7-H7 to its receptor KIR3DL3. A CHO-K1 cell (CHO-K1/KIR3DL3, Harbour BioMed US, Inc.) overexpressing human KIR3DL3 was used in experiments at the cellular level where human B7-H7/human KIR3DL3 binding was blocked. Briefly, the CHO-K1/KIR3DL3 cells were digested and resuspended in PBS containing 2% BSA. The cells were adjusted to a cell density of 1×10⁶ cells/mL. […] The cells were incubated at 4° C. for 1 hour in the dark. […] The cells were rinsed twice by adding pre-chilled PBS containing 2% BSA at 100 μL/well, and were centrifuged at 500 g at 4° C. for 5 minutes, and the supernatant was discarded. A fluorescent secondary antibody (PE Streptavidin, BD, Cat #: 554061, 1:200) was added at 100 μL/well, and the cells were incubated at 4° C. for 30 minutes in the dark. The cells were washed twice by adding pre-chilled PBS at 200 µL/well, and centrifuged at 500 g at 4° C. for 5 minutes, and the supernatant was discarded. Finally, the cells were resuspended in pre-chilled PBS at 200 μL/well, and the fluorescence signal values were read using an ACEA Novocyte3000 flow cytometer. IC50 was calculated.

EC50 [1]: 0.881 nM
Maximum MFI [1]: 800000 MFI
EC50 [2]: 0.0151 nM
Maximum MFI [2]: 55400 MFI
EC50 [3]: 0.035 nM
Maximum MFI [3]: 21000 MFI
EC50 [4]: 0.412 nM
Maximum MFI [4]: 419000 MFI
IC50 [5]: 1.38 nM
Maximum inhibition rate (%) [5]: 101%
Kd [6]: 1.83 nM
koff [6]: 0.000178 s⁻¹
kon [6]: 97000 M⁻¹ s⁻¹
IC50 [7]: 5.07 nM
Maximum inhibition rate (%) [7]: 97.5%
B1: PR003249 (antibody, human IgG1, kappa)
heavy: QVQLVESGGGVVQPGRSLRLSCAASGFTFSDYGIHWVRQAPGKGLEWVAVIWYDGSDKYYADSVRGRFTISRDNSKNTLSLQMNSLRVEDTAVYYCARDRSSGAMGYFVYWGQGTLVTVSS[not shown - human IgG1 constant region]
light: [not shown - about 100 residues][not shown - about 100 residues]
notes: Human IgG1; also called 25H3F2
